# Data published in patent publication US20160038588A1, “Myostatin Antagonism in Human Subjects” (AMGEN INC., priority 2013, published 2016).
# Numbering of substitutions follows the chain as printed.
# T1: recombinant mature myostatin (human, produced in E. coli) (human) (UniProt O14793)
# T1 sequence (looked up): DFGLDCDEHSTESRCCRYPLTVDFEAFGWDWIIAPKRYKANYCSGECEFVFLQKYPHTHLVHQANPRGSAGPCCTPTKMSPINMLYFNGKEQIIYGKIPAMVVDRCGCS
# B1: mL20-4 peptibody (Fc fusion)
# chain: [here human IgG1 Fc without letters]GGGGGAQMQHDMSMLYGLVELLESLGHQILE
# B2: mL2-7 peptibody (Fc fusion)
# chain: MGAQRMEMLESLFELLKEIVPMSKAGLEGGGGG[here human IgG1 Fc without letters]
# B3: mL2-9 peptibody (Fc fusion)
# chain: B2 chain with R5Q, M8L, E10D, M22K, K24Q, A25P, G26A
# B4: mTN8Con6-3 peptibody (Fc fusion)
# chain: [here human IgG1 Fc without letters]GGGGGAQWTGWYQCYGGHLWCYDLRRKLE
# B5: mL15-7 peptibody (Fc fusion)
# chain: [here human IgG1 Fc without letters]GGGGGAQQVDSLQQVLLWLEHKLALGPQVLE
# B6: mTN8-19-21(-LE) peptibody (Fc fusion)
# chain: [here human IgG1 Fc without letters]GGGGGAQSEYQGLCTRWPWMCPPQGWK
# B7: mTN8-19-33(-LE) peptibody (Fc fusion)
# chain: [here human IgG1 Fc without letters]GGGGGAQPESQGHCTRWPWMCPPQGWG
# B8: mL20-2 peptibody (Fc fusion)
# chain: [here human IgG1 Fc without letters]GGGGGAQTQRDMSMLDGLLEVLDQLRQQRLE
# B9: mL20-3 peptibody (Fc fusion)
# chain: [here human IgG1 Fc without letters]GGGGGAQTSRDMSLLWELLEELDRLGHQRLE
# B10: Myostatin-TN12-34 peptibody (Fc fusion)
# chain: MAHWCEQGPWRYGNICMAYGGGGG[here human IgG1 Fc without letters]GGGGGAHWCEQGPWRYGNICMAY
# B11: mTN8-19-23 peptibody (Fc fusion)
# chain: [here human IgG1 Fc without letters]GGGGGAQPGAHDHCTRWPWMCPPQSRYLE
# B12: mTN8Con6-5 peptibody (Fc fusion)
# chain: [here human IgG1 Fc without letters]GGGGGAQESRWYPCYEGHLWCFDLTETLE
# B13: Myostatin-Linear-20 peptibody (Fc fusion)
# chain: MYREMSMLEGLLDVLERLQHYGGGGG[here human IgG1 Fc without letters]
# B14: mTN8-19-4 peptibody (Fc fusion)
# chain: [here human IgG1 Fc without letters]GGGGGAQMITQGQCTRWPWMCPPQPSGLE
# B15: mTN8-19-12 peptibody (Fc fusion)
# chain: [here human IgG1 Fc without letters]GGGGGAQSYWQGQCTRWPWMCPPQWRGLE
# B16: mTN8-19-11 peptibody (Fc fusion)
# chain: [here human IgG1 Fc without letters]GGGGGAQIYPHDQCTRWPWMCPPQPYPLE
# B17: mTN8-19-29 peptibody (Fc fusion)
# chain: [here human IgG1 Fc without letters]GGGGGAQTLVQGHCTRWPWMCPPQRWVLE
# B18: mTN8-19-28 peptibody (Fc fusion)
# chain: [here human IgG1 Fc without letters]GGGGGAQSGPQGHCTRWPWMCAPQGWFLE
# B19: mTN8-19-16 peptibody (Fc fusion)
# chain: [here human IgG1 Fc without letters]GGGGGAQYQTQGLCTRWPWMCPPQSQRLE
# B20: mTN8-19-13 peptibody (Fc fusion)
# chain: [here human IgG1 Fc without letters]GGGGGAQMWQQGHCTRWPWMCPPQGWGLE
# B21: mTN8-19-6 peptibody (Fc fusion)
# chain: [here human IgG1 Fc without letters]GGGGGAQGVNQGQCTRWRWMCPPNGWELE
# B22: mL15-9 peptibody (Fc fusion)
# chain: [here human IgG1 Fc without letters]GGGGGAQQIEMLESLLDLLRDMVPMSNAFLE
# Biological target: T1, recombinant mature myostatin (human, produced in E. coli) (human)
# Assay: cell-based or functional assay
row,"IC50, C2C12 pMARE-luc assay",Binder
1,160 nM,B1
2,90.2 nM,B2
3,106 nM,B3
4,86.8 nM,B4
5,32.8 nM,B5
6,2.49 nM,B6
7,1.81 nM,B7
8,123 nM,B8
9,158 nM,B9
10,30 nM,B10
11,6.58 nM,B11
12,2.38 µM,B12
13,11 nM,B13
14,16.7 nM,B14
15,980 nM,B15
16,28.7 nM,B16
17,6.36 nM,B17
18,4.39 nM,B18
19,4.65 nM,B19
20,20 nM,B20
21,17.3 nM,B21
22,354 nM,B22
